Measured values: article PMC13080237, “Functional divergence of protein kinase A regulatory subunit Iβ variants: the importance of N3A motifs in PKA regulation” (The Febs Journal, 2025)

Target: FSS-Cα (human PKA catalytic subunit α with N-terminal FSS-tag) (human)
Experiment: SPR; Biacore T200, multicycle; FSS-Cα captured through its N-terminal FSS-tag on Strep-Tactin XT on a CM5 chip; RIβ variants as analytes, 33 nM to 0.14 nM in 3-fold dilutions, 30 uL/min, 25 °C; 10 mM HEPES pH 7.4, 150 mM NaCl, 0.05% P20, 10 mM MgCl2, 1 mM ATP; no cAMP; 1:1 Langmuir global fit
Conditions: both partners purified

Kd: 160 pM
koff: 0.00036 s⁻¹
kon: 2.2e+06 M⁻¹ s⁻¹
B1: His-RIβ R268 (human PKA regulatory subunit Iβ, R268 variant) (natural protein)
chain: not shown
